About 16,000 (4.4%) of roughly 360,000 compounds were called active. The shares of active, inactive and inconclusive entries below differ from those in the screen. Calls follow the shape of the dose curve; as a rule, active = well fitted inhibition curve with a large enough effect; inconclusive = small, poorly fitted or top-dose-only effect; inactive = no such curve, though single readings can be large or run the other way. A potency beside an inconclusive call is a rough fit, not a confirmed value.
biological target: Bromodomain adjacent to zinc finger domain protein 2B (Homo sapiens) (UniProt Q9UIF8); assay: qHTS Assay for Inhibitors of BAZ2B; settings: AlphaScreen BAZ2B-H3K14Ac peptide displacement; activity change, negative = inhibition: at 114 µM (top of the series) unless noted; also: nearly all actives have a fitted effect of over 60% in size
Procedure, shortened: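 In this displacement format the biotinylated H3(5-23) peptide acetylated at Lys14 serves as ligand at 50 nM, with BAZ2B at 50 nM in PBS pH 7.4 containing 0.01% Tween-20. Donor and acceptor beads are 10 ug/mL final.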
% is scaled to controls: 0 for no effect and ±100 for the full control effect; potency is read from the fitted curve at half-maximal effect; tags tell the direction and shape of the fitted curve.

Chain of UniProt Q9UIF8 (Q9UIF8 whole entry, looked up, the tested form may be a part): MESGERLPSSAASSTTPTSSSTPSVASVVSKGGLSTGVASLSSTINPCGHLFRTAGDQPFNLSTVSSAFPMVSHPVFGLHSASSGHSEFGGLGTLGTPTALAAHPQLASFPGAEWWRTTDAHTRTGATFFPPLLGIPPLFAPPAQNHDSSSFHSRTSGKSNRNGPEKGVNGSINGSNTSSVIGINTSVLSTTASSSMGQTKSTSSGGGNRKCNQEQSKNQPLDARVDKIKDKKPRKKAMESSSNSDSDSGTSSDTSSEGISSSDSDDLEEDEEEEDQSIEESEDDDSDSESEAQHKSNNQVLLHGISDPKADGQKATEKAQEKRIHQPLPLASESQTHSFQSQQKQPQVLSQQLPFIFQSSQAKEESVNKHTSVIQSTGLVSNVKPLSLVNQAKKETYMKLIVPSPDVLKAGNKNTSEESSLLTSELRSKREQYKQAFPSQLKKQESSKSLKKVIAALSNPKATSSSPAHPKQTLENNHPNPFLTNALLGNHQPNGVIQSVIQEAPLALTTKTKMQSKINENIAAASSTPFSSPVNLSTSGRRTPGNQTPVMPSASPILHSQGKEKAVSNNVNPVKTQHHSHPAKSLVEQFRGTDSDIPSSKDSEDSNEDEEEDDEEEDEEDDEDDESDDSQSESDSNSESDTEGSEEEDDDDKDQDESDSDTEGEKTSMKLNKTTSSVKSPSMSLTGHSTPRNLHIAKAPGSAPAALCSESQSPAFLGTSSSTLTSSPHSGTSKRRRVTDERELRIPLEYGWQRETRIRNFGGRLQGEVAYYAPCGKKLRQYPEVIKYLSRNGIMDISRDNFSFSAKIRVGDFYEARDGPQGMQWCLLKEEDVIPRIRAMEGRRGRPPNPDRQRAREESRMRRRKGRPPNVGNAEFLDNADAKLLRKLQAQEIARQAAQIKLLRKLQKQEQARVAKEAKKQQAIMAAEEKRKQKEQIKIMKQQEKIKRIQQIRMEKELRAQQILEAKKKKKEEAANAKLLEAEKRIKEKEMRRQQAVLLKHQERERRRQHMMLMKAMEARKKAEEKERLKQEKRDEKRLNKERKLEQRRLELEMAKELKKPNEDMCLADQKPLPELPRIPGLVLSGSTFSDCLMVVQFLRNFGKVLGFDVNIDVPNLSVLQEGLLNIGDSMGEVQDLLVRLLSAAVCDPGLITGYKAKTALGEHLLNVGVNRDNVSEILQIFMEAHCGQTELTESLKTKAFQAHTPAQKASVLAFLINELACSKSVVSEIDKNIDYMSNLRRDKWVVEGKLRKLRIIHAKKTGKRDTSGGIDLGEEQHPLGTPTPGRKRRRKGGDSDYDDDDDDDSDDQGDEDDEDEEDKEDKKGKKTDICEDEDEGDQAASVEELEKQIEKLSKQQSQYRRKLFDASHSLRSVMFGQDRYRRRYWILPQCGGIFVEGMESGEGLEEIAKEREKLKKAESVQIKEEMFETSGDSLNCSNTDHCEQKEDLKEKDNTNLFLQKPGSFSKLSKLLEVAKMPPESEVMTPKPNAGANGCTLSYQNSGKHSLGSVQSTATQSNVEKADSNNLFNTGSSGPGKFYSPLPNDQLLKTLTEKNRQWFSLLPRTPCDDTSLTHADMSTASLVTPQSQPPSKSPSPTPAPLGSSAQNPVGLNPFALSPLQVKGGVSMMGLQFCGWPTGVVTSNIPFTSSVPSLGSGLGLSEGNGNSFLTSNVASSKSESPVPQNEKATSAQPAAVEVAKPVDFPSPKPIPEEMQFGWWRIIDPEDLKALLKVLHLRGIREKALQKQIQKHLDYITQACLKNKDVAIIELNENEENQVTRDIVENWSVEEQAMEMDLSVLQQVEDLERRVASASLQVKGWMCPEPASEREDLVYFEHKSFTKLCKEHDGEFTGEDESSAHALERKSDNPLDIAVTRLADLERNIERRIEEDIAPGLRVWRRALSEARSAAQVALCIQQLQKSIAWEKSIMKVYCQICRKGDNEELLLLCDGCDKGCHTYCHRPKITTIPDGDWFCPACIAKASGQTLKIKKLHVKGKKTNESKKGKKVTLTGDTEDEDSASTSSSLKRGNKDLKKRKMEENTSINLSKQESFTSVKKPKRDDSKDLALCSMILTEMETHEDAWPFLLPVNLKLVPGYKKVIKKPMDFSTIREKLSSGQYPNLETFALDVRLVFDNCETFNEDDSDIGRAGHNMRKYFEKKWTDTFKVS

Row | SMILES | Potency | activity change, negative = inhibition
1 | O=C(Nc1cc(C(F)(F)F)ccc1N1CCCCC1)c1ccc(Br)o1 | inconclusive: 22.4 µM [inhibitor, full curve, poor fit] | –
2 | Cc1ccc(-c2nc(CN(C)Cc3cccc4cnccc34)c(C)o2)s1 | inconclusive: 89.1 µM [inhibitor, single point] | –
3 | CCN(CC)c1ccc(/C=N/NS(=O)(=O)c2ccc(CNC(C)=O)cc2)cc1 | inconclusive: 70.8 µM [inhibitor, single point] | –
4 | O=C(NCCCNCc1ccccc1)c1ccc(/C=N/O)nc1 | active: 50.1 µM | –
5 | S=C(NCc1ccco1)Nc1cc(-c2ccccc2)[nH]n1 | active: 39.8 µM | –
6 | Cc1ccccc1-n1ccnc1SCC(=O)NCc1ccco1 | inconclusive: 89.1 µM [inhibitor, single point] | –
7 | N#Cc1c2nc3ccccc3nc2n2cc(NC(=O)c3ccc(F)cc3)ccc12 | inconclusive: 79.4 µM [inhibitor, single point] | –
8 | C/C(CC1CC(COCCC(C)C)OC1=O)=N\NC(N)=S (stereo not drawn) | inconclusive: 89.1 µM [inhibitor, single point] | –
9 | CCc1ccc(Oc2c(C(F)(F)F)oc3c(CN4CCN(CC)CC4)c(O)ccc3c2=O)cc1 | inconclusive: 79.4 µM [inhibitor, single point] | –
10 | CC(=O)NNC(=O)c1csc(-c2csc(C)n2)n1 | inconclusive: 50.1 µM [inhibitor, partial curve] | –
11 | O=c1c(N2CCN(c3cccc(Cl)c3)CC2)csc2ccccc12 | inconclusive: 50.1 µM [inhibitor, partial curve] | –
12 | Cc1ccnc2nc(C(=O)Nc3nnc(-c4ccc(Cl)cc4)o3)nn12 | inconclusive: 79.4 µM [inhibitor, partial curve] | –
13 | COc1ccc(-c2nc(N3CCN(C)CC3)sc2-c2ccc(OC)cc2)cc1 | active: 28.2 µM | –
14 | CCOC(=O)C1=C(C)OC(N)=C(C#N)C1c1ccc(C)o1 (stereo not drawn) | – | inactive: -21.8%
15 | O=C(NC(=S)NCc1ccccc1)c1ccc(Br)o1 | inconclusive: 79.4 µM [inhibitor, single point] | –
16 | COC(=O)c1ccccc1OCCCCN1CC(C)OC(C)C1 (stereo not drawn) | active: 35.5 µM | –
17 | CC/C(=N\Nc1ccnc2cc(Cl)ccc12)c1ccc(O)cc1 | inconclusive: 44.7 µM [inhibitor, partial curve] | –
18 | Cc1ccc(CN2CCCNC2=O)cc1 | inconclusive: 25.1 µM [inhibitor, full curve, poor fit] | –
19 | Cc1ccc(OCc2ccoc2C(=O)O)cc1C | inconclusive: 89.1 µM [inhibitor, single point] | –
20 | CCOc1ccccc1CNC(=O)c1cn(-c2ccc(OC)cc2)c(=O)c2ccccc12 | inconclusive: 50.1 µM [inhibitor, partial curve] | –
21 | C/C(=N/NC(=O)CN(c1ccccc1)S(=O)(=O)c1ccccc1)c1ccccc1O | active: 12.6 µM | –
22 | CCC(=O)Nc1ccccc1-c1nc2ccccc2n(C(C)C(=O)Nc2cccc(Cl)c2C)c1=O (stereo not drawn) | inconclusive: 89.1 µM [inhibitor, single point] | –

Row | SMILES | Potency | activity change, negative = inhibition
23 | COc1ccc(OC)c2sc(N3CCN(C(=O)c4ccc([N+](=O)[O-])s4)CC3)nc12 | inconclusive: 31.6 µM [inhibitor, full curve, poor fit] | –
24 | O=C([O-])c1cc(-c2ccccc2)cc(-c2ccccc2)[n+]1Cc1ccccc1 | – | inactive: 52.8%
25 | Cc1cccc(-n2c(-c3csc4ccccc34)n[nH]c2=S)c1 | inconclusive: 70.8 µM [inhibitor, single point] | –
26 | O=C(NC(Cc1c[nH]c2ccccc12)C(=O)N/N=C/c1cccnc1)c1cccs1 (stereo not drawn) | inconclusive: 79.4 µM [inhibitor, single point] | –
27 | Cc1nn(-c2ccccc2)c(N)c1Sc1ccccc1[N+](=O)[O-] | inconclusive: 44.7 µM [inhibitor, partial curve] | –
28 | Cc1ccnc(NC(=O)c2ccc(Cl)c(NC(=O)CCc3ccccc3)c2)c1 | inconclusive: 89.1 µM [inhibitor, single point] | –
29 | Cc1cc(C)cc(-n2ccnc2SCC(=O)Nc2ccc(C)cc2C)c1 | active: 31.6 µM | –
30 | S=c1nc(Cc2ccc(Cl)cc2)[nH]c2ccccc12 | – | inactive: -1.02%
31 | C=C1CC[C@@]23CC[C@]4(C)[C@@](OC2=O)([C@@H]3C1)[C@H]1O[C@H]1C1[C@@]2(C)CC[C@H](O)C(C)(C)C2CC[C@]14C (stereo partly drawn) | – | inactive: 4.5%
32 | COc1ccc(-c2cc(C(C)=O)c(C)n2CCC(=O)Nc2ccc(C)cc2Cl)cc1 | – | inactive: 18.2%
33 | NC(=O)C1CCN(C(=O)CSc2ccsc2[N+](=O)[O-])CC1 | – | inactive: -21.2%
34 | O=C(O)c1ccccc1NS(=O)(=O)c1ccccc1C(F)(F)F | inconclusive: 89.1 µM [inhibitor, single point] | –
35 | O=S(=O)(c1ccc2[nH]c3c(c2c1)CCCC3)N1CCN(c2cccc(C(F)(F)F)c2)CC1 | – | inactive: -27.9%
36 | CN1C(C(=O)c2ccccc2)=C(NC(=O)c2ccccc2Br)c2ccccc2S1(=O)=O | inconclusive: 56.2 µM [inhibitor, partial curve, poor fit] | –
37 | COc1cc(OC)c2c(-c3ccccc3)cc(=O)oc2c1C(CCN1CCN(c2ccccc2)CC1)c1ccc(N(C)C)cc1 (stereo not drawn) | active: 4.47 µM | –
38 | COc1ccccc1OCCCCN1CCC(C)CC1 | inconclusive: 89.1 µM [inhibitor, single point] | –
39 | CCc1ccc2[nH]c(=O)c(CN(CCCN3CCOCC3)C(=O)Nc3cccc(Cl)c3)cc2c1 | inconclusive: 44.7 µM [inhibitor, partial curve] | –
40 | CC(C)c1ccc(CNC(=O)C(=O)NCCCn2ccnc2)cc1 | active: 50.1 µM | –
41 | COc1ccc(C(=S)N2CCOCC2)cc1OC(=O)c1cc(OC)c(OC)c(OC)c1 | inconclusive: 70.8 µM [inhibitor, single point] | –
42 | Cc1ccc(C2c3[nH]c4ccccc4c3C[C@H]3C(=O)N(c4ccccc4C(=O)NCCCN4CCOCC4)C(=O)N23)cc1 (stereo partly drawn) | inconclusive: 44.7 µM [inhibitor, partial curve] | –
43 | Cc1cccc(N2CCN(CCCNC(=O)c3sc4ncccc4c3-n3cccc3)CC2C)c1 (stereo not drawn) | inconclusive: 39.8 µM [inhibitor, partial curve] | –
